# Assay results as given in the supplement of paper PMC8728848.
# Some of the results follow.
# Columns and labels:
# Assay in all cases: glycan array binding signal (z-score within array); higher = stronger binding
# Details in all cases: glycan notation: IUPAC condensed, linker removed
# [1] = molecular target: Neu5Ac(a2-3)Gal(b1-4)GlcNAc(b1-6)GalNAc
# Method in brief: (§1)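 Glycan array data came from 3228 arrays in the Consortium for Functional Glycomics database, and only arrays with an available protein sequence were kept. Glycan names were put into IUPAC-condensed notation, and columns mapping to the same glycan were averaged. The binding signal is a within-array Z-score, averaged across arrays of one protein sequence run at different concentrations or buffers and across linkers. A negative Z-score can be read as non-binding.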
# [2] = molecular target: Neu5Ac(a2-3)Gal(b1-4)GlcNAc(b1-6)[Gal(b1-3)]GalNAc
# Method in brief: as §1
# [3] = molecular target: Neu5Ac(a2-3)Gal(b1-4)GlcNAc(b1-6)[Neu5Ac(a2-3)Gal(b1-3)]GalNAc
# Method in brief: as §1
# [4] = molecular target: Neu5Ac(a2-3)Gal(b1-4)GlcNAc6S
# Method in brief: as §1
# [5] = molecular target: Neu5Ac(a2-3)Gal(b1-4)[Fuc(a1-3)]GlcNAc
# Method in brief: as §1
# [6] = molecular target: Neu5Ac(a2-3)Gal(b1-4)[Fuc(a1-3)]GlcNAc(b1-2)Man
# Method in brief: as §1
# [7] = molecular target: Neu5Ac(a2-3)Gal(b1-4)[Fuc(a1-3)]GlcNAc(b1-3)Gal
# Method in brief: as §1
# [8] = molecular target: Neu5Ac(a2-3)Gal(b1-4)[Fuc(a1-3)]GlcNAc(b1-3)Gal(b1-4)GlcNAc
# Method in brief: as §1
# [9] = molecular target: Neu5Ac(a2-3)Gal(b1-4)[Fuc(a1-3)]GlcNAc(b1-3)Gal(b1-4)[Fuc(a1-3)]GlcNAc(b1-3)Gal(b1-4)[Fuc(a1-3)]GlcNAc
# Method in brief: as §1
# [10] = molecular target: Neu5Ac(a2-3)Gal(b1-4)[Fuc(a1-3)]GlcNAc(b1-3)GalNAc
# Method in brief: as §1
# [11] = molecular target: Neu5Ac(a2-3)Gal(b1-4)[Fuc(a1-3)]GlcNAc(b1-6)[Gal(b1-3)]GalNAc
# Method in brief: as §1
# [12] = molecular target: Neu5Ac(a2-3)Gal(b1-4)[Fuc(a1-3)]GlcNAc(b1-6)[Neu5Ac(a2-3)Gal(b1-3)]GalNAc
# Method in brief: as §1
# [13] = molecular target: Neu5Ac(a2-3)Gal(b1-4)[Fuc(a1-3)]GlcNAc6S
# Method in brief: as §1
# [14] = molecular target: Neu5Ac(a2-3)Gal6S(b1-4)GlcNAc
# Method in brief: as §1
# [15] = molecular target: Neu5Ac(a2-3)Gal6S(b1-4)[Fuc(a1-3)]GlcNAc
# Method in brief: as §1
# Neu5Ac(a2-3)GalNAc = molecular target: Neu5Ac(a2-3)GalNAc
# Method in brief: as §1
# [16] = molecular target: Neu5Ac(a2-3)GalNAc(b1-4)GlcNAc
# Method in brief: as §1
# [17] = molecular target: Neu5Ac(a2-3)[GalNAc(b1-4)]Gal(b1-4)Glc
# Method in brief: as §1
# [18] = molecular target: Neu5Ac(a2-3)[GalNAc(b1-4)]Gal(b1-4)GlcNAc
# Method in brief: as §1
# [19] = molecular target: Neu5Ac(a2-3)[GalNAc(b1-4)]Gal(b1-4)GlcNAc(b1-3)GalNAc
# Method in brief: as §1
# [20] = molecular target: Neu5Ac(a2-3)[Neu5Ac(a2-6)]GalNAc
# Method in brief: as §1
# Neu5Ac(a2-6)Gal = molecular target: Neu5Ac(a2-6)Gal
# Method in brief: as §1
# [21] = molecular target: Neu5Ac(a2-6)Gal(b1-3)GlcNAc(b1-3)[Gal(b1-4)GlcNAc(b1-6)]Gal(b1-4)Glc
# Method in brief: as §1
binder,measurement,setting,value
AidA (Burkholderia cenocepacia) (protein) MSRVTDVLVSFDTETILKKYPNPSKNPAAPTLIDWRYVYMVTNQDNVISGQAGGELDLKAQVGDLIRWRETSLSLGFENQVVFYKFIGNVGNDLISTPTPRVAEASIPVPNTSKPEVPTCQKVANYYWSSECLKVGRVTYHFQFQIIDRNCQSQGCFSWDPFISIHN,glycan array binding signal (z-score),[1],-0.721
same,glycan array binding signal (z-score),[2],-0.586
same,glycan array binding signal (z-score),[3],-0.108
same,glycan array binding signal (z-score),[4],-0.261
same,glycan array binding signal (z-score),[5],0.589
same,glycan array binding signal (z-score),[6],-0.076
same,glycan array binding signal (z-score),[7],-0.027
same,glycan array binding signal (z-score),[8],0.479
same,glycan array binding signal (z-score),[9],0.2
same,glycan array binding signal (z-score),[10],1.86
same,glycan array binding signal (z-score),[11],-0.213
same,glycan array binding signal (z-score),[12],0.593
same,glycan array binding signal (z-score),[13],-0.124
same,glycan array binding signal (z-score),[14],-0.261
same,glycan array binding signal (z-score),[15],-0.056
same,glycan array binding signal (z-score),Neu5Ac(a2-3)GalNAc,0.603
same,glycan array binding signal (z-score),[16],-0.134
same,glycan array binding signal (z-score),[17],0.03
same,glycan array binding signal (z-score),[18],-0.388
same,glycan array binding signal (z-score),[19],-0.87
same,glycan array binding signal (z-score),[20],-0.269
same,glycan array binding signal (z-score),Neu5Ac(a2-6)Gal,-0.346
same,glycan array binding signal (z-score),[21],0.097
